Test results from the supplement of paper PMC7826260.
Some of the results follow. Cleavage of a single-stranded DNA pool by Rep nickase domains was read by sequencing (3 µM enzyme, 1 h, 37 °C); shown is the middle of each 90-letter strand. Values are log2 of uncut reads against the no-enzyme pool; strong cutting gives strongly negative numbers. There is no active / inactive call. Reads are scaled to the total; where an enzyme cuts many sequences, the uncut ones exceed 0.

Key:
Assay in all cases: uncleaved DNA left, log2 of reads against the no-enzyme library (log2 ratio); higher = less cleavage (more negative = more Rep cleavage of the k-mer); sequences stand for … in CTCGTCCG…ACCGGAGA
[1] = system: T1, Rep nickase domain of Muscovy duck circovirus
T1 sequence (Rep 1-111, printed without the tag): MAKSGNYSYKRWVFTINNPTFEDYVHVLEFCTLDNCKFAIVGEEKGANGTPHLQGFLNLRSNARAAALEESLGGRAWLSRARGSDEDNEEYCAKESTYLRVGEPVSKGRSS
Method: (§1)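 A pool of 90-nt single-stranded DNAs with seven random bases just before the constant AC of the nick site (name = the seven bases) was cut by 3 µM recombinant His6-SUMO-tagged Rep nickase domain (300 nM DNA, 50 mM HEPES pH 8.0, 50 mM NaCl, 1 mM MnCl2, 1 h, 37 °C, three replicates). Uncut DNA was amplified and sequenced.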

[2] = system: T2, Rep nickase domain of banana bunchy top virus
T2 sequence (Rep 1-94, printed without the tag): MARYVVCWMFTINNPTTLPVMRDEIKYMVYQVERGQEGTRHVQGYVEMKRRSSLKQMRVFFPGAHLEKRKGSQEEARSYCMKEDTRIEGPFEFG
Method: as §1

[3] = system: T3, Rep nickase domain of cabbage leaf curl virus
T3 sequence (Rep 1-116, printed without the tag): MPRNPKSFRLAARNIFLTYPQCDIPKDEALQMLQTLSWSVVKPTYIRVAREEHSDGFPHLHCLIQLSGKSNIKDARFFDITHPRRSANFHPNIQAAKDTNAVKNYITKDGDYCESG
Method: as §1

[4] = system: T4, Rep nickase domain of chickpea chlorotic dwarf virus
T4 sequence (Rep 1-124, printed without the tag): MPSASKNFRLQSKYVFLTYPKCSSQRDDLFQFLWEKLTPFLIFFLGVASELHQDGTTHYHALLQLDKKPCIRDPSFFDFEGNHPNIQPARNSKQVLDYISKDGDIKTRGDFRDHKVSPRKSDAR
Method: as §1

[5] = system: T5, Rep nickase domain of faba bean necrotic yellows virus
T5 sequence (Rep 1-98, printed without the tag): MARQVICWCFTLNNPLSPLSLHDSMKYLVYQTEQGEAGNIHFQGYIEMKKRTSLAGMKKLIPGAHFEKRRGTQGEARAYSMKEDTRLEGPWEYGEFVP
Method: as §1

[6] = system: T6, Rep nickase domain of maize striate mosaic virus
T6 sequence (Rep 1-117, printed without the tag): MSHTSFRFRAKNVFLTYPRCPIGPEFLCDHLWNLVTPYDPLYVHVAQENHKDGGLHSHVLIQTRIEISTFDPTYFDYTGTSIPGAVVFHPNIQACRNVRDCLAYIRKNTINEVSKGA
Method: as §1

[7] = system: T7, Rep nickase domain of porcine circovirus 2
T7 sequence (Rep 2-116, printed without the tag): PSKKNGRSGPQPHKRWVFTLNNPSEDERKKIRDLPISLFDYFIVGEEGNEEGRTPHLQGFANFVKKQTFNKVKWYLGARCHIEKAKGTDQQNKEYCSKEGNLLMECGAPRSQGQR
Method: as §1

[8] = system: T8, Rep nickase domain of tomato golden mosaic virus
T8 sequence (Rep 1-124, printed without the tag): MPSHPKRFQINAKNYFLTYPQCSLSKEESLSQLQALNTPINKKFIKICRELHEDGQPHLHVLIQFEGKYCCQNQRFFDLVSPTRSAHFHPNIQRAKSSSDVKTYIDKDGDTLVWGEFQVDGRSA
Method: as §1

[9] = system: T9, Rep nickase domain of tomato yellow leaf curl virus
T9 sequence (Rep 1-136, printed without the tag): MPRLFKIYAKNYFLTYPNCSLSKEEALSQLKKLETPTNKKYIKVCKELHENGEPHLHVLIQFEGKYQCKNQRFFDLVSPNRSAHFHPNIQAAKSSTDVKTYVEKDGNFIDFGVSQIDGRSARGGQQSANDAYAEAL
Method: as §1

[10] = system: T10, Rep nickase domain of wheat dwarf virus
T10 sequence (Rep 1-137, printed without the tag): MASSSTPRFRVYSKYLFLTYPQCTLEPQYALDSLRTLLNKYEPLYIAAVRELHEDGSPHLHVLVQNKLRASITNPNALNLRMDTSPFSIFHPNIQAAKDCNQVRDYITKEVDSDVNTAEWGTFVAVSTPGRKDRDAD
Method: as §1

Sequence | uncleaved DNA left (log2) [1] | uncleaved DNA left (log2) [2] | uncleaved DNA left (log2) [3] | uncleaved DNA left (log2) [4] | uncleaved DNA left (log2) [5] | uncleaved DNA left (log2) [6] | uncleaved DNA left (log2) [7] | uncleaved DNA left (log2) [8] | uncleaved DNA left (log2) [9] | uncleaved DNA left (log2) [10]
AACTATA | -0.374 | -0.172 | -0.363 | -2.91 | -0.0404 | -0.741 | -3.12 | -0.0746 | -0.0733 | -0.00416
TTGACTA | 0.0255 | 0.0475 | 0.194 | 0.286 | -0.00478 | 0.938 | -0.0123 | 0.0248 | 0.0899 | 0.0705
CTTACGG | 0.191 | 0.229 | 0.7 | 1.44 | 0.104 | 1.94 | 0.321 | 0.243 | 0.0972 | 0.181
CCAACCA | -0.152 | 0.14 | -0.178 | -2.11 | 0.121 | -0.497 | -0.621 | 0.051 | 0.127 | 0.0641
CTATAGG | 0.179 | 0.143 | 0.223 | 1.13 | 0.0608 | 0.623 | 0.231 | 0.0806 | 0.0254 | 0.156
AAATAGA | 0.0936 | 0.0325 | -0.31 | -0.763 | 0.0543 | -1.04 | -0.0186 | 0.137 | 0.0538 | 0.0484
GCACTAA | -0.163 | 0.000338 | -0.122 | 0.188 | -0.0863 | 0.0349 | 0.00402 | -0.0937 | -0.087 | -0.0187
GGACAAT | -0.00553 | -0.0797 | 0.794 | 1.96 | -0.0562 | 2.19 | 0.0615 | -0.0759 | 0.0251 | 0.198
TGGTGAC | 0.00733 | 0.108 | 0.843 | 1.81 | 0.118 | 2.11 | 0.23 | 0.00329 | 0.0203 | 0.19
GGTTATA | 0.116 | 0.0913 | 0.392 | 0.932 | 0.0346 | 1.83 | 0.0664 | 0.12 | 0.0373 | 0.184
GCATAAT | -1.77 | 0.0362 | -0.0125 | -0.375 | 0.11 | -0.0557 | -2.68 | 0.188 | 0.146 | 0.016
GTACTGA | 0.0446 | 0.0515 | 0.249 | 0.749 | 0.0892 | 1.56 | 0.0585 | 0.114 | -0.00406 | 0.0303
GGGTCGT | -0.0374 | -0.0309 | 0.838 | 1.88 | -0.0109 | 2.21 | 0.126 | -0.0493 | -0.0404 | 0.0675
ATGCAGT | 0.132 | -0.12 | -0.607 | -0.678 | 0.0194 | -1.08 | -0.0167 | 0.0727 | 0.00334 | -0.0378
GGAAGGA | 0.0825 | 0.0933 | 0.734 | 1.06 | 0.0488 | 1.76 | 0.249 | 0.0891 | 0.0744 | 0.17
CCTTAGT | -1.85 | 0.0755 | -0.121 | -0.852 | 0.0486 | -1.07 | -3.35 | 0.113 | 0.0532 | 0.0763
CTAATCC | -0.0323 | 0.138 | 0.298 | 0.00393 | -0.085 | -0.445 | 0.0443 | -0.00495 | -0.0264 | 0.112
ATTCATA | -0.11 | -0.0929 | -0.172 | -1.32 | -0.0536 | -0.547 | -0.128 | 0.0271 | 0.0493 | 0.0236
CCCCCAT | 0.0456 | 0.0261 | 0.0452 | -0.616 | -0.0105 | -0.35 | -0.117 | 0.0487 | 0.0592 | 0.0853
AGAATGG | 0.0717 | 0.0744 | -0.0643 | 0.145 | 0.0507 | -0.684 | 0.0798 | 0.0756 | -0.0548 | 0.0593
CGTCACG | 0.0996 | 0.0662 | -0.736 | -0.342 | -0.0406 | -1.12 | 0.0703 | -0.063 | 0.00821 | -0.0723
TACGCAT | 0.122 | 0.0401 | -0.816 | -2.5 | 0.105 | -0.755 | -0.185 | -0.0378 | -0.00358 | -0.0897
GGGGCTG | -0.0125 | -0.0362 | 0.544 | 1.48 | -0.114 | 2.08 | 0.0525 | -0.0404 | -0.0448 | -0.0173
AATATCA | 0.0309 | 0.162 | 0.373 | -0.575 | -0.0289 | 0.213 | 0.00721 | 0.0535 | 0.226 | 0.182
GTTACCG | -0.0816 | -0.0615 | -0.652 | -1.32 | -0.0879 | -0.752 | 0.0151 | -0.0326 | -0.111 | -0.0941
TTCGTGC | -0.0557 | -0.063 | -0.47 | -0.554 | 0.0839 | -0.949 | 0.0493 | -0.192 | -0.143 | -0.172
TAAAGGA | 0.197 | 0.142 | 0.234 | -0.029 | 0.16 | -0.122 | 0.238 | 0.2 | 0.114 | 0.179
CCAGGAC | -0.00475 | 0.053 | 0.409 | 1.17 | -0.0329 | 1.17 | 0.197 | 0.101 | -0.00074 | 0.039
ACTCAGG | -0.0358 | 0.0285 | -0.248 | -0.0754 | 0.102 | -0.892 | 0.18 | 0.0791 | -0.00792 | -0.0276
